# Laboratory results reported in paper PMC6919601, “Identification of Plasmodium dipeptidyl aminopeptidase allosteric inhibitors by high throughput screening” (PLoS ONE, 2019).
# Values joined by “and” are separate entries in the source; they are usually repeats but may differ in a detail not shown here. Equal values may be shown once. Among all 110,000 compounds or so, about 230 (0.21%) showed an effect of 50% or more. This is one part of the list.
# Target: DPAP1 (Plasmodium falciparum, UniProt Q8IIJ9)
# Test: primary screen, percent inhibition; read by cleavage of a fluorogenic dipeptide substrate; higher = more effect of the substance
# Set-up: species or system P. falciparum D10 trophozoite lysates; single well
# 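Further: 30 min substrate incubation versus DMSO and 10 µM JCP410 controls.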
# DPAP1, sequence (Q8IIJ9 whole entry, looked up): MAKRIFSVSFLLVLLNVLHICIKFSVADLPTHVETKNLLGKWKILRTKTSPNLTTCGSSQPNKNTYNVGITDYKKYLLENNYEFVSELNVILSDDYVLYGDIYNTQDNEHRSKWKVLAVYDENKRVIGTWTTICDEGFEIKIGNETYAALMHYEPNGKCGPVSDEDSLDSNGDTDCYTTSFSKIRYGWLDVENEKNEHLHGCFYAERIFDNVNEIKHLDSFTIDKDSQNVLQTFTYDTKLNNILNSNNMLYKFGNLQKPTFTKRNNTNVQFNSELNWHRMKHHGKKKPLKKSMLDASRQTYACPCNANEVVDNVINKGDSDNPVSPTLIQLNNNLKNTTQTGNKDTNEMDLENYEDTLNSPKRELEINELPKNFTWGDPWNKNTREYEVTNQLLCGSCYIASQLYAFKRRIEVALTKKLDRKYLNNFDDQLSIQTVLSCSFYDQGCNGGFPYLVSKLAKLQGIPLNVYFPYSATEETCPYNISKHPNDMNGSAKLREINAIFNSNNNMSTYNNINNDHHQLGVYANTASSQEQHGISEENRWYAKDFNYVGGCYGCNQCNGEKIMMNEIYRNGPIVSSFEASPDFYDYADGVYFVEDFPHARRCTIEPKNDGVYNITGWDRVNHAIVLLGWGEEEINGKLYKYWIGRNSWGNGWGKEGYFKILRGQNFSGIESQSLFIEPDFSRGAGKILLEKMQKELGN
row,SMILES,% Inhibition @ 10 uM
1,Cn1cccc1-c1nc2cc(NS(=O)(=O)c3ccccc3)ccc2[nH]1,-1.38% and 1.88%
2,CCOC(=O)c1c(C=O)c(C)n(Cc2ccccc2F)c1C,-1.75%
3,CC(C)CSc1nc(O)cc(O)n1,-1.42%
4,O=C(CCN1C(=O)/C(=C\c2ccc(F)cc2)SC1=S)Nc1ccccc1,-1.97%
5,COc1cc(CC(C)N2CCCCCC2)ccc1O (stereo not drawn),-5.31%
6,COC(=O)c1ccc2oc(=O)c(C(N)=O)cc2c1,-4.58%
7,COc1ccc(C(=O)Nc2c(Cl)cc(Cl)cc2C(=O)NCc2ccco2)cc1,-11.7%
8,CCN1CCC(N2CCN(c3ccccc3Cl)CC2)CC1,1.57%
9,COc1ccc(OC)c(NC(=O)C2=C(C)NC(=O)NC2c2cccs2)c1 (stereo not drawn),-17%
10,CC1CN(c2nc3c(c(=O)n(C)c(=O)n3C)n2Cc2cccc(F)c2)CC(C)O1 (stereo not drawn),1.9%
11,CC(C)CCNC(=O)CCNC(=O)Cn1ccc2ccccc2c1=O,-5%
12,CCC1SC2=NC(C)=C(C(=O)OCc3ccccc3)C(c3ccc(OC)cc3)N2C1=O (stereo not drawn),0.561%
13,CCCCOCC(O)CN1CCN(C(C)=O)CC1 (stereo not drawn),-3.18%
14,CCCc1[nH]nc2c1C(c1cccc(OC)c1)C(C#N)=C(N)O2 (stereo not drawn),2.76%
15,CC(C)(C)NC(=O)c1cccs1,-5.64%
16,Oc1ccc(Br)cc1CN1CCN(Cc2ccccc2F)CC1,-7.23%
17,CCOc1ccccc1N1CCN(Cc2cccc(Br)c2)CC1,1.55%
18,Cc1ccc(C2CC(c3ccccc3)n3nnnc3N2)cc1 (stereo not drawn),0.131%
19,O=C(Nc1ccncc1)c1ccc2c(c1)C(=O)N(CC1CCCO1)C2=O (stereo not drawn),3.49%
20,CC1(C)Cc2c(sc3[nH]c(=S)[nH]c(=S)c23)CO1,15%
21,CC(C)CCNC(=O)C(=O)NCC(C)O (stereo not drawn),-0.0494%
22,O=C(/C=C/c1cn(CC(O)CN2CCCCC2)c2ccccc12)c1cccs1 (stereo not drawn),-5.36%

row,SMILES,% Inhibition @ 10 uM
1,c1ccc2[nH]c(-c3ccncc3)nc2c1,-3.55%
2,COc1ccc(S(=O)(=O)N(CC(=O)N2CCC(C)CC2)c2cc(Cl)ccc2OC)cc1OC,-5.26%
3,Cc1[nH]c2c(C)cccc2c1CCN,-3.38%
4,O=C(CN1CCOCC1)N1N=C(c2ccc(Br)cc2)CC1c1nc2ccccc2[nH]1 (stereo not drawn),1.24%
5,CCOC(=O)C1=C(C)N=c2s/c(=C\c3c(OCC)ccc4ccccc34)c(=O)n2C1c1ccccc1 (stereo not drawn),-1.66%
6,Brc1cnc2nc(-c3ccco3)c(-c3ccco3)nc2c1,-0.833%
7,CC1CCN(C(=O)CCCN2C(=O)C(c3ccccc3)Oc3cccnc32)CC1 (stereo not drawn),-2.97%
8,Cc1cccc(NC(=O)c2onc3c2CCCC3)n1,-2.29%
9,COCc1cc(O)nc(SCC(=O)Nc2ccccc2)n1,-4.48%
10,Nc1ccc(S(=O)(=O)N2CCc3ccccc32)cc1,4.98%
11,COc1cccc(C(C)NC(=O)c2cc(C)on2)c1 (stereo not drawn),-2.65%
12,CNc1nc2c(C)cccn2c(=O)c1/C=N/Cc1ccccc1,-3.98%
13,CCC(C)NC(=O)Cn1ncn2c(cc3sccc32)c1=O (stereo not drawn),-1.58%
14,CCC(Cc1ccccc1)NC(=O)c1ccc(OC)c(OC)c1 (stereo not drawn),-0.128%
15,O=C(NCCN1CCOCC1)C(c1ccccc1)N1Cc2ccccc2C1=O (stereo not drawn),-5.29%
16,CCSc1nnc(NC(=O)CCNS(=O)(=O)c2cc(Br)cnc2N)s1,-1.91%
17,CCCCNC(=O)Nc1ccccc1C(=O)Nc1ccc(Cl)cc1,-0.116%
18,COc1cc(C(=O)N2CCN(C(=O)c3cc(OC)c(OC)c(OC)c3)C(C)C2)cc(OC)c1OC (stereo not drawn),-1.4%
19,COc1ccc(OC)c(-c2cc(C(=O)Nc3cccnc3)c3ccccc3n2)c1,-6.74%
20,CC(=O)Nc1ccc(Nc2nc(-c3ccccc3)cs2)cc1,2.62%
21,O=C(O)c1ccccc1CSc1ccccn1,-5.96%
22,COCCNC(=S)N(CCc1c(C)[nH]c2ccc(C)cc12)Cc1cccnc1,-2.01%

row,SMILES,% Inhibition @ 10 uM
1,Cc1oc2ncnc(NC3CCCC(C)C3C)c2c1C(=O)O (stereo not drawn),-2.19%
2,Cc1ccc(S(=O)(=O)c2cnc3ccc(Cl)cc3c2N2CCCC2)cc1,-1.85%
3,O=C(CNS(=O)(=O)c1ccc(Br)cc1)NCC1CCCO1 (stereo not drawn),-4.56%
4,Cc1ccc(NC(=O)CC2Sc3ccc(C(F)(F)F)cc3NC2=O)c(Br)c1 (stereo not drawn),2.06%
5,N#Cc1ccc(NC(=O)c2ccccc2C(=O)O)cc1,1.08%
6,O=C(Nc1ccc(NC(=O)c2ccco2)cc1)c1ccco1,-1.8%
7,N#Cc1c(NC(=O)C(F)(F)F)oc(-c2ccccc2)c1-c1ccccc1,4.55%
8,CCCc1cc(=O)n(CC)c(NC2CCCCC2)n1,-0.575%
9,O=C(O)c1ccc2c(c1)C(=O)N(c1ccc([N+](=O)[O-])cc1)C2=O,-6.88%
10,CC(=O)NCCc1ccc(S(=O)(=O)N(C)C)cc1,-1.33%
11,NC(=O)c1ccc(-n2nnnc2Oc2ccc(F)cc2)cc1,2.57%
12,CNS(=O)(=O)c1ccc(NC(=O)C23CC4CC(C2)CC(n2cnc(Br)n2)(C4)C3)cc1,2.09%
13,N#Cc1cnn2c(NC3CCCCCC3)c(-c3ccccc3F)[nH]c12,6.89%
14,COc1ccc(C2C=C(c3ccc(OC)c(OC)c3)Nc3ncnn32)cc1 (stereo not drawn),-3.26%
15,COc1ccc(C2C(C(=O)c3ccc(C)o3)=C(O)C(=O)N2CC2CCCO2)cc1OC (stereo not drawn),-9.12%
16,COCCNC(=O)c1cc(-c2ccccc2F)no1,-1.19%
17,O=C(C1=C(O)/C(=C/c2ccccc2)CCC1)C(F)(F)F,-0.169%
18,CCN(CC)S(=O)(=O)c1ccc(C(=O)Nc2c3c(nn2C(C)(C)C)CS(=O)(=O)C3)cc1,-0.195%
19,CC(=O)Nc1ccc(S(=O)(=O)N2CCN(C(=O)N3CCCC3)CC2)cc1,-1.61%
20,Cc1ccc(CN2c3ccsc3C(O)=C(/C=N/Cc3cccnc3)S2(=O)=O)cc1,-4.41%
21,CCC(C(=O)Nc1ccc(OC)cc1)c1ccccc1 (stereo not drawn),3.7%
22,OC1CCN(Cc2ccccc2C(F)(F)F)CC1,-1.92%
